Measured values from the supplement of paper PMC4723716.
± gives the uncertainty stated by the source. In all, about 9,900 compounds were measured (“viability index relative to DMSO control”: median about 1, lowest 2% from about 0.85 on). The list shows a part of the results.

Test system: Plasmodium falciparum NF54 stage V gametocytes
Assay: viability index relative to DMSO control (fraction); higher = less gametocyte killing
Conditions: 2.5 µM, incubation time: 72 h
Method in brief: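 Stage V gametocytes of P. falciparum NF54 were held in serum-free screening medium at 0.75% gametocytemia and 1.25% hematocrit, 10 µl per well of a 1,536-well plate, and exposed to compound at 2.5 µM for 72 hr at 37°C under low oxygen. A 3 µl mix of 2.5 µM MitoTracker Red CMXRos with 0.13% saponin was then added for one to two hours, after which one field per well was imaged and red particles of 20–70 µm2 were counted. The viability index equals this count divided by the plate mean from wells given solvent alone.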

[1] = library set: Broad Institute DOS

| SMILES | viability index [1] | viability index (library set: Broad Institute Blood Stage) |
| --- | --- | --- |
| C[C@H]1CN([C@@H](C)CO)C(=O)CCCn2nncc2CO[C@@H]1CN(C)S(=O)(=O)c1ccccc1C#N | 1.01 ± 0.019 |  |
| COCC#Cc1ccc([C@H]2[C@@H](CO)N3C(=O)CN(C(=O)CN4CCOCC4)C[C@H]23)cc1 | 1.03 ± 0.077 |  |
| CO[C@H](CN(C)C(=O)c1cc(Cl)cc(Cl)c1)[C@H](C)CN(C(=O)Nc1ccc(F)cc1)[C@@H](C)CO | 1.06 ± 0.053 |  |
| CN1C(=O)c2cc(NC(=O)Nc3ccccc3F)ccc2OC[C@H]2O[C@H](CC(=O)NCCc3ccncc3)CC[C@H]21 | 1.08 ± 0.053 |  |
| O=C(Nc1ccc2c(c1)[C@@H]1C[C@H](CC(=O)N3CCOCC3)O[C@@H](CO)[C@@H]1O2)Nc1ccccc1F | 1.12 ± 0.019 |  |
| O=C(CN1CCOCC1)N[C@@H]1CC[C@@H](CCn2cc(C3CC3)nn2)O[C@H]1CO | 1.17 ± 0.12 |  |
| CO[C@H]1CN(C)C(=O)c2cc(NS(=O)(=O)c3ccc(Cl)cc3)ccc2OC[C@@H](C)N(C(=O)NC(C)C)C[C@@H]1C | 1.1 ± 0.0095 |  |
| C/C=C/c1ccc2n(c1=O)C[C@@H]1[C@@H](CO)[C@H](C(=O)NCCc3cn(C)cn3)[C@H]2N1C(=O)C1CCC1.C/C=C\c1ccc2n(c1=O)C[C@@H]1[C@@H](CO)[C@H](C(=O)NCCc3cn(C)cn3)[C@H]2N1C(=O)C1CCC1 | 1.05 ± 0.029 |  |
| N#C[C@@H]1[C@@H](c2ccccc2C2=CCCCC2)[C@@H](CO)N1S(=O)(=O)c1ccccc1 | 1.1 ± 0.075 |  |
| CN1C(=O)c2cc(NC(=O)c3cccc(C(F)(F)F)c3)ccc2OC[C@H]2O[C@H](CC(=O)NCCN3CCCC3)CC[C@@H]21 | 1.028 ± 0.0042 |  |
| N#C[C@@H]1N[C@H](CO)[C@@H]1c1ccc(/C=C/c2ccccc2)cc1 | 1.06 ± 0.078 |  |
| CCCNC(=O)Nc1ccc2c(c1)C(=O)N(C)C[C@@H](OC)[C@H](C)CN(C)[C@@H](C)CO2 | 1.08 ± 0.12 |  |
| O=C(Nc1cc(F)ccc1F)N[C@@H]1CC[C@H](CC(=O)N2CCc3ccccc3C2)O[C@@H]1CO | 1 ± 0.033 |  |
| O=C(Nc1nccs1)[C@H]1[C@H](CO)[C@H]2Cn3c(cccc3=O)[C@@H]1N2C(=O)C1CC1 | 0.933 ± 0.011 |  |
| CC[C@@H]1C/C=C\CCNC(=O)CCC(=O)N1 | 1.02 ± 0.02 |  |
| CCC(=O)N1C[C@H](C)[C@@H](OC)CN(C)C(=O)c2ccc(NC(=O)CC(F)(F)F)cc2OC[C@H]1C | 1.051 ± 0.0091 |  |
| Cc1cc(C(=O)Nc2ccc3c(c2)C(=O)N(C)[C@@H]2CC[C@H](CC(=O)O)O[C@H]2CO3)no1 | 0.915 ± 0.11 |  |
| COc1ccc2c3c([C@H](CO)N(C[C@]33CCN(C)CC3)C(=O)NC3CCCCC3)n(C)c2c1 | 0.976 ± 0.091 |  |
| COc1cccc(CNC(=O)C[C@H]2CC[C@@H]3[C@@H](COc4ccc(NC(=O)c5cccs5)cc4C(=O)N3C)O2)c1 | 0.955 ± 0.13 |  |
| COc1ccc(NC(=O)N2CC[C@@]3(CC2)CN([C@H](CO)c2[nH]c4cc(OC)ccc4c32)C(=O)c2cccnc2)cc1 | 0.914 ± 0.067 |  |
| COc1ccc(NC(=O)N2C[C@@H](O)COC[C@H]3O[C@@H](CC(=O)NCc4ccncn4)CC[C@@H]32)cc1 | 1.04 ± 0.025 |  |
| O=C(CC(F)(F)F)N1C[C@H]2[C@@H](c3ccccc31)[C@@H](CO)N2C(=O)c1ccncc1 | 1.071 ± 0.008 |  |
| CCC(=O)N1CC(=O)N2[C@H](CO)[C@H](c3ccc(C#CCC(C)C)cc3)[C@H]2C1 | 0.956 ± 0.046 |  |

| SMILES | viability index [1] | viability index (library set: Broad Institute Blood Stage) |
| --- | --- | --- |
| CC(C)(C)[S@](=O)N1Cc2cc(C(=O)NC3CCC3)nc(-c3cccc(-c4ccccc4F)c3)c2[C@@H]1CCO | 0.944 ± 0.042 |  |
| COc1ccccc1CNC(=O)C[C@H]1C[C@@H]2c3cc(NC(=O)C4CCC4)ccc3O[C@@H]2[C@H](CO)O1 | 1.05 ± 0.038 |  |
| COc1ccc2c3c([C@@H](CO)N(C[C@]33CCN(CC3)C(=O)Nc3cccc(F)c3)C(=O)CN3CCOCC3)n(C)c2c1 | 0.993 ± 0.12 |  |
| CO[C@@H](CN(C)C(=O)C1CCOCC1)[C@@H](C)CN(C(=O)Nc1ccc(C(F)(F)F)cc1)[C@H](C)CO | 0.998 ± 0.014 |  |
| COCC#Cc1ccc([C@@H]2[C@H](CO)N3CCCCN(C(=O)NC4CCCC4)C[C@@H]23)cc1 | 1.01 ± 0.061 |  |
| COc1cccc(C#Cc2ccc([C@H]3[C@@H](C#N)N(C(=O)c4ccccn4)[C@@H]3CO)cc2)c1 | 1.098 ± 0.009 |  |
| CN1CCN(C(=O)C[C@@H]2C[C@H]3c4cc(NS(C)(=O)=O)ccc4O[C@H]3[C@H](CO)O2)CC1 | 0.878 ± 0.27 |  |
| CN1CCN(C(=O)C[C@@H]2CC[C@H]3[C@@H](COC[C@@H](O)CN3CC3CCCCC3)O2)CC1 | 0.989 ± 0.087 |  |
| CC(C)C#Cc1ccc([C@H]2[C@@H](CO)N3C(=O)CN(S(=O)(=O)c4ccccc4)C[C@H]23)cc1 | 1.04 ± 0.096 |  |
| COc1ccc2c3c([nH]c2c1)[C@@H](CO)N(C[C@]31CCN(CC1)C(=O)Cc1cccnc1)S(=O)(=O)c1ccc(C)cc1 | 0.827 ± 0.019 |  |
| O=C(C[C@H]1C[C@@H]2c3cc(NS(=O)(=O)c4ccc(F)cc4)ccc3O[C@@H]2[C@@H](CO)O1)N1CCc2ccccc2C1 | 1.118 ± 0.0083 |  |
| COc1cccc(S(=O)(=O)N[C@H]2CC[C@H](CC(=O)NC3Cc4ccccc4C3)O[C@H]2CO)c1 | 0.905 ± 0.13 |  |
| C[C@@H]1CCCCO[C@@H](CN(C)C(=O)Nc2ccccc2)[C@@H](C)CN([C@@H](C)CO)C(=O)c2cc(NC(=O)Nc3ccccc3)ccc2O1 | 1.11 ± 0.013 |  |
| CO[C@@H]1CN(C)C(=O)c2cc(NC(=O)NC(C)C)ccc2OC[C@@H](C)N(Cc2ccccc2)C[C@H]1C | 1.1 ± 0.037 |  |
| C/C=C/c1ccc([C@H]2[C@H]3CNC[C@@H]2N3S(=O)(=O)c2cccc(F)c2)cc1 | 1.02 ± 0.027 |  |
| CN(C)C(=O)c1cccc(-c2ccc([C@@H]3[C@H]4CNC[C@@H]3N4C(=O)Nc3cccc(Cl)c3)cc2)c1 | 1.1 ± 0.059 |  |
| C[C@@H]1CN([C@@H](C)CO)C(=O)c2c(c3ccccc3n2C)-c2ccccc2CO[C@H]1CN(C)C(=O)NC1CCCCC1 | 0.877 ± 0.059 |  |
| O=C(Nc1ccc(-c2ccccc2)cc1)[C@H]1[C@H](CO)[C@H]2Cn3c(cccc3=O)[C@H]2N1CC1CCOCC1 | 1 ± 0.081 |  |
| CN1CCN(C(=O)c2cc3c(c(-c4cccc(Br)c4)n2)[C@H](CCO)N([S@@](=O)C(C)(C)C)C3)CC1 | 1.11 ± 0.077 |  |
| O=C(Nc1ccc(Cl)cc1)N1[C@@H]2CNC[C@H]1[C@H]2c1ccc(-c2ccccc2)cc1 | 1.07 ± 0.013 |  |
| O=S(=O)(c1ccccc1F)N1CC[C@@H]2[C@H](CO)Nc3ccc(C4=CCCCC4)cc3[C@@H]21 | 1 ± 0.076 |  |
| OC[C@@H]1[C@@H](c2ccc(C#Cc3ccccc3F)cc2)[C@@H]2CN(CC3CCOCC3)CCCCN12 | 1.01 ± 0.072 |  |
| O=C(C[C@@H]1C=C[C@H](NC(=O)Nc2ccccc2F)[C@@H](CO)O1)NCc1ccc(-c2ccccc2)cc1 | 1.11 ± 0.14 |  |

| SMILES | viability index [1] | viability index (library set: Broad Institute Blood Stage) |
| --- | --- | --- |
| CN1C(=O)c2cc(NC(=O)C3CCOCC3)ccc2OC[C@H]2O[C@@H](CC(=O)NCc3ccccc3F)CC[C@H]21 | 0.949 ± 0.17 |  |
| O=C(C[C@H]1C[C@H]2c3cc(NS(=O)(=O)c4ccc(F)cc4)ccc3O[C@H]2[C@@H](CO)O1)N1CCc2ccccc2C1 | 1.06 ± 0.033 |  |
| CCC(=O)N1C[C@@H](C)[C@H](OC)CN(C)C(=O)c2ccc(NC(=O)CC(F)(F)F)cc2OC[C@H]1C | 1.07 ± 0.021 |  |
| CCCNC(=O)N(C)C[C@H]1Oc2cc(C#C[C@H](C)O)ccc2S(=O)(=O)N([C@H](C)CO)C[C@@H]1C | 1.0353 ± 0.00023 |  |
| CN(C)CC(=O)N1[C@H](C#N)[C@H](c2ccc(C#CC3CCCCC3)cc2)[C@@H]1CO | 0.981 ± 0.11 |  |
| CO[C@@H]1CN(C)C(=O)c2cc(NC(=O)Nc3cccc(Cl)c3)ccc2OC[C@@H](C)N(C(=O)Nc2c(C)noc2C)C[C@@H]1C | 1.06 ± 0.1 |  |
| CN1CCN(C(=O)C[C@H]2CC[C@H]3[C@@H](COc4ccc(NC(=O)C5CCOCC5)cc4C(=O)N3C)O2)CC1 | 1.09 ± 0.038 |  |
| Cc1ccccc1S(=O)(=O)N1C[C@H](O)COC[C@H]2O[C@@H](CC(=O)N3CCCCC3)CC[C@@H]21 | 0.994 ± 0.13 |  |
| C[C@@H]1CN([C@H](C)CO)C(=O)c2ccccc2-c2ccccc2CO[C@H]1CN(C)C(=O)Nc1cccc(Cl)c1Cl | 0.863 ± 0.045 |  |
| C[C@H](CO)N1C[C@H](C)[C@@H](CN(C)C(=O)[C@H]2CCCN2C)OCc2ccccc2-c2ccccc2C1=O | 0.996 ± 0.084 |  |
| O=S(=O)(NC[C@H]1[C@H](c2ccccc2)[C@@H](CO)N1CC1CC1)c1ccccc1 | 1.02 ± 0.052 |  |
| COc1ccc2c3c([C@H](CO)N(C[C@]33CCN(CC3)C(=O)Nc3ccc(F)cc3F)C(=O)Nc3ccc(F)cc3)n(C)c2c1 | 1.04 ± 0.029 |  |
| COc1ccc2c3c([C@@H](CO)NC[C@]33CCN(Cc4ccc(cc4)-c4ccccn4)CC3)n(C)c2c1 |  | 0.946 ± 0.052 |
| Cn1cnc(CCNC(=O)[C@H]2[C@H](CO)[C@H]3Cn4c(cccc4=O)[C@H]3N2C(=O)Nc2ccccc2)c1 | 1.11 ± 0.034 |  |
| O=C1CNC[C@@H]2[C@@H](c3ccc(-c4ccccc4F)cc3)[C@@H](CO)N12 | 1.07 ± 0.049 |  |
| C[C@H](CO)N1C[C@H](C)[C@H](CN(C)S(=O)(=O)c2ccc(Cl)cc2)Oc2ccc(NC(=O)Cn3cnnn3)cc2CC1=O | 1.07 ± 0.026 |  |
| C[C@H]1CN([C@@H](C)CO)C(=O)c2cc(NC(=O)C3CCCCC3)ccc2O[C@@H]1CN(C)C(=O)Nc1ccc(C(F)(F)F)cc1 | 1.03 ± 0.038 |  |
| COc1ccc(S(=O)(=O)Nc2ccc3c(c2)C(=O)N([C@H](C)CO)C[C@H](C)[C@@H](CN(C)S(=O)(=O)c2ccc(Cl)cc2)OCCCC[C@@H](C)O3)cc1 | 1.02 ± 0.05 |  |
| COc1cccc(NC(=O)Nc2ccc3c(c2)C(=O)N(C)C[C@H](OC)[C@@H](C)CN(CC2CC2)[C@@H](C)CO3)c1 | 0.904 ± 0.031 |  |
| CC(C)C#Cc1ccc([C@@H]2[C@@H](CO)N3C(=O)CN(S(=O)(=O)c4ccccc4)C[C@H]23)cc1 | 1.01 ± 0.072 |  |
| CCS(=O)(=O)N[C@@H]1CC[C@@H](CC(=O)NCc2ccc(Cl)cc2)O[C@@H]1CO | 1.06 ± 0.14 |  |
| C/C=C/c1ccc([C@@H]2[C@@H]3CN(S(=O)(=O)c4cn(C)cn4)C[C@H]2N3)cc1 | 1.09 ± 0.02 |  |
| O=C(CC1CC1)N1[C@H](CO)[C@H]2c3ccccc3N(S(=O)(=O)c3ccccc3F)C[C@H]21 | 1.03 ± 0.048 |  |
